Test results taken from the supplement of paper PMC12340641.
In all, about 1,000 compounds were measured (“relative growth in counter assay (no AraC = 100%, AraC + DMSO = 0%)”: median about -1.1, highest 2% from about 20 on). The list shows a part of the results.

system: HEK293FT dCK*-only; experiment: relative growth in counter assay (no AraC = 100%, AraC + DMSO = 0%); higher = more growth rescue independent of IKZF1; conditions: compound concentration: 5 uM; AraC concentration: 0.3 uM; overnight pretreatment + 4 days AraC
Description: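 Growth recovery screen of the molecular-glue-like (Specs) library. HEK293FT cells expressing a dCK*-IKZF1 fusion (primary) or dCK* alone (counter) were pretreated overnight with compound at 5 uM, then given 0.3 uM AraC for 4 days. Hoechst nuclei were counted by imaging. Primary: normalised to pomalidomide (100%) and DMSO (0%), mean of 2 replicates. Counter: normalised to no-AraC (100%) and AraC+DMSO (0%), single replicate.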

Row | SMILES | relative growth in counter assay [%]
1 | NC(=O)CN1CCCC1c1cccc(Nc2nccs2)n1 (stereo unspecified) | -24.6
2 | Cc1cnc(C(=O)N2CCCC2c2cccc(Nc3nc(C)c(C)s3)n2)cn1 (stereo unspecified) | 4.08
3 | Cc1ccc(C)c(OCC(=O)Nc2ccc(S(=O)(=O)Nc3nc(C)cc(C)n3)cc2)c1 | -5.89
4 | Cc1cccc(C(=O)Nc2ccc(S(=O)(=O)Nc3ncccn3)cc2)c1 | -2.64
5 | CCC(C)C(=O)Nc1ccc(S(=O)(=O)Nc2nccc(C)n2)cc1 (stereo unspecified) | -7.22
6 | CC(=O)N1CCC(c2cccc(Nc3nc(C)c(C)s3)n2)CC1 | -8.66
7 | Cc1ccnc(NS(=O)(=O)c2ccc(NC(=O)CCc3ccccc3)cc2)n1 | -5.18
8 | Cc1cnc(Nc2cc(C3CCN(C(=O)C4CCCCC4)CC3)ccn2)s1 | -1.25
9 | Cc1cc(C)nc(NS(=O)(=O)c2ccc(NC(=O)CCl)cc2)n1 | 23.6
10 | O=C(COc1ccc(F)cc1)N1CCCC1c1cccc(Nc2nccs2)n1 (stereo unspecified) | 14.9
11 | Cc1cc(NS(=O)(=O)c2ccc(NC(=O)c3ccccc3)cc2)nc(C)n1 | 0.4
12 | COc1ccc(CCC(=O)N2CCOC(c3cccc(Nc4ncc(C)s4)n3)C2)cc1 (stereo unspecified) | 9.66
13 | COc1ccc(NC(=O)CN2CCC(c3cccc(Nc4ncc(C)s4)n3)CC2)cc1 | -18.6
14 | COc1ccc(Cl)c2c1[nH]c1nc(SCC(=O)Nc3ccc(Cl)cc3)nnc12 | -1.12
15 | CC(C)(C)C(=O)N1CCC(Cc2ccc(Nc3ncc(-c4ccc(F)cc4)s3)nc2)C1 (stereo unspecified) | 1.54
16 | Cc1csc(Nc2cccc(C3CCN(C(=O)CCn4ncc5ccccc54)CC3)n2)n1 | 3.86
17 | O=C1CCC(N2C(=O)c3cc(F)c(N4CCN(CCC5CCNCC5)CC4)cc3C2=O)C(=O)N1 (stereo unspecified) | 1.21
18 | Cc1cnc(Nc2cccc(C(C(=O)N(C)C)C3CCN(C(=O)[C@H](CC(C)C)NC(=O)OC(C)(C)C)CC3)n2)s1 (stereo partly specified) | -2.11
19 | CCC(CC)C(=O)Nc1ccc(S(=O)(=O)Nc2nccc(C)n2)cc1 | 5.84
20 | CC(=O)N1CCCCC1c1csc(Nc2ccccn2)n1 (stereo unspecified) | -1.54
21 | COc1ccc(Cl)cc1C(=O)Nc1ccc(S(=O)(=O)Nc2nccc(C)n2)cc1 | -3.09
22 | COc1cc(NS(=O)(=O)c2ccc(NC(=S)NC(=O)/C=C/c3ccc(F)cc3)cc2)nc(OC)n1 | -21.1
23 | O=C(CSc1nc2cc(Cl)ccc2[nH]1)Nc1ncccn1 | 2.92
24 | Cc1ccc2[nH]c3nc(SCC(=O)Nc4cccc(Cl)c4C)nnc3c2c1 | 1.69

Row | SMILES | relative growth in counter assay [%]
25 | COC(C)(C)C(=O)N1CCOC(c2cccc(Nc3ncc(C)s3)n2)C1 (stereo unspecified) | -13
26 | O=C1CCC(N2C(=O)c3ccc(NCCCn4cc(C(=O)O)cn4)cc3C2=O)C(=O)N1 (stereo unspecified) | -4
27 | Cc1cnc(C(=O)N2CCC(c3cccc(Nc4nccs4)n3)CC2)cn1 | 3.86
28 | CC(C)(C)CC(=O)NC1(C(=O)N2CCC(c3cccc(Nc4ncc(Cl)s4)n3)CC2)CCCCC1 | -22.6
29 | Cc1cc(C)nc(NS(=O)(=O)c2ccc(Nc3nc(-c4ccccc4)cs3)cc2)n1 | 2.2
30 | CC(C)c1cnc(Nc2cccc(C3CCN(C(=O)C4CCCCC4)CC3)n2)s1 | 11
31 | Cc1csc(Nc2cccc(C3CCCN3C(=O)Cc3c[nH]c4ccccc34)n2)n1 (stereo unspecified) | 3.37
32 | Cc1cccc(OC(C)(C)C(=O)N2CCOC(c3cccc(Nc4ncc(C)s4)n3)C2)c1 (stereo unspecified) | -4.9
33 | COc1cc(NS(=O)(=O)c2ccc(NC(=O)COc3cccc(C)c3)cc2)nc(OC)n1 | -22.6
34 | Cc1nonc1CC(=O)N1CCC(c2cccc(Nc3nc(C)c(C)s3)n2)CC1 | 9.17
35 | CCOc1ccccc1OCC(=O)Nc1ccc(S(=O)(=O)Nc2ccccn2)cc1 | -1.47
36 | Cn1nccc1/C=C/C(=O)N1CCCC(c2cc3ccccc3c(Nc3nccs3)n2)C1 (stereo unspecified) | -13.3
37 | COc1c(C)cccc1C(=O)N1CCCC1c1cccc(Nc2nc(C)cs2)n1 (stereo unspecified) | 4.8
38 | Cc1ccc(/C=C/C(=O)Nc2ccc(S(=O)(=O)Nc3cc(C)nc(C)n3)cc2)cc1 | -5.33
39 | O=C(CSc1nnc2c(n1)[nH]c1ccccc12)Nc1cc(Cl)cc(Cl)c1 | -18.9
40 | COc1cc(NS(=O)(=O)c2ccc(NC(=O)C(C)(C)C)cc2)nc(OC)n1 | 3.09
41 | O=S(=O)(Nc1ccc(S(=O)(=O)Nc2ncccn2)cc1)c1ccc(Cl)cc1 | 10.6
42 | Cc1ccc(CC(=O)N2CCOC(c3cccc(Nc4nccs4)n3)C2)cc1C (stereo unspecified) | -4.97
43 | O=C(O)CCOCCOCCOCCOCCNc1cc2c(cc1F)C(=O)N(C1CCC(=O)NC1=O)C2=O (stereo unspecified) | 4.1
44 | Cc1cc(C)nc(NS(=O)(=O)c2ccc(NC(=O)CSc3nc4ccccc4[nH]3)cc2)n1 | -1.02
45 | CC(C)(C)C(=O)NC1(C(=O)N2CCC(c3cccc(Nc4ncc(Cl)s4)n3)CC2)CCCCC1 | -21.4
46 | CCCc1cnc(Nc2cccc(C3CCN(C(=O)C4CCCCN4C(=O)COC)CC3)n2)s1 (stereo unspecified) | -1.04
47 | CCC(=O)N1CCCC1c1csc(Nc2ccccn2)n1 (stereo unspecified) | -10.9
48 | COc1ccc(/C=C/C(=O)Nc2ccc(S(=O)(=O)Nc3cc(C)nc(C)n3)cc2)cc1OC | 1.15

Row | SMILES | relative growth in counter assay [%]
49 | Cc1cnc(Nc2cccc(C3CCN(C(=O)C45CC6CC(CC(C6)C4)C5)CC3)n2)s1 | 10.9
50 | O=C(O)CCCCCNc1cccc2c1C(=O)N(C1CCC(=O)NC1=O)C2=O (stereo unspecified) | 1.33
51 | Cc1cc(C)nc(NS(=O)(=O)c2ccc(NC(=O)c3ncoc3-c3cccs3)cc2)n1 | -0.87
52 | Cc1onc(-c2ccccc2)c1C(=O)Nc1ccc(S(=O)(=O)Nc2ncccn2)cc1 | -21.6
53 | CN(CC(=O)N1CCOC(c2cccc(Nc3nccs3)n2)C1)Cc1ccccc1F (stereo unspecified) | 0.79
54 | Cc1csc(Nc2cccc(CC3CCN(CC(=O)N(C)C)CC3)n2)n1 | 7.9
55 | Cc1csc(Nc2cccc(C3CCCN3C(=O)COc3c(C)cccc3C)n2)n1 (stereo unspecified) | -5.6
56 | Cc1ccc(CCC(=O)Nc2ccc(S(=O)(=O)Nc3nc(C)cc(C)n3)cc2)cc1 | -0.03
57 | Cc1csc(Nc2cccc(C3CCN(C(=O)c4nccc5ccccc45)CC3)n2)n1 | -6.18
58 | COc1ccc(NC(=O)CN2CCC(c3cccc(Nc4nc(C)cs4)n3)CC2)cc1 | 13.8
59 | COc1ccc(OCCCC(=O)Nc2ccc(S(=O)(=O)Nc3ncccn3)cc2)cc1 | 1.38
60 | O=C(CN1C(=O)C2CCCCC2C1=O)Nc1ccc(S(=O)(=O)Nc2ncccn2)cc1 (stereo unspecified) | -0.9
61 | Cc1csc(Nc2cccc(C3CCN(C(=O)C4CC=CCC4)CC3)n2)n1 (stereo unspecified) | 7.14
62 | Cc1ccc(Cl)cc1NC(=O)CSc1nnc2c(n1)[nH]c1ccc(F)cc12 | -2.7
63 | CCCc1cnc(Nc2cccc(C3CCN(C(=O)C4CCCCN4CCO)CC3)n2)s1 (stereo unspecified) | -7.08
64 | O=C(Nc1ccc(S(=O)(=O)Nc2ncccn2)cc1)C(F)(F)F | 11.6
65 | Cc1nc2ccccn2c1CC(=O)N1CCOC(c2cccc(Nc3nccs3)n2)C1 (stereo unspecified) | 4.61
66 | Cc1ccnc(NS(=O)(=O)c2ccc(NC(=O)c3ccccc3F)cc2)n1 | 4.1
67 | COc1ccc(C(=O)Nc2ccc(S(=O)(=O)Nc3cc(OC)nc(OC)n3)cc2)c(OC)c1 | 2.33
68 | NC(=O)CN1CCC(Cc2cccc(Nc3nccs3)n2)CC1 | -23.2
69 | CC(=O)Nc1ccc(C(=O)Nc2ccc(S(=O)(=O)Nc3ncccn3)cc2)cc1 | 4.78
70 | COc1cc(OC)cc(C(=O)Nc2ccc(S(=O)(=O)Nc3ccccn3)cc2)c1 | 2.42
71 | O=C(/C=C/c1ccco1)N1CCCC(c2csc(Nc3ccccn3)n2)C1 (stereo unspecified) | 11.1
72 | Cc1csc(Nc2cccc(C3CCCN3CC(N)=O)n2)n1 (stereo unspecified) | 16.8

Row | SMILES | relative growth in counter assay [%]
73 | CC(Oc1ccc(F)cc1)C(=O)Nc1ccc(S(=O)(=O)Nc2ncccn2)cc1 (stereo unspecified) | 7.06
74 | Cc1cc(C)nc(NS(=O)(=O)c2ccc(NC(=O)C(C)Oc3ccccc3F)cc2)n1 (stereo unspecified) | 5.27
75 | COc1cc(NS(=O)(=O)c2ccc(NC(=O)c3ccc(Br)o3)cc2)nc(OC)n1 | -0.13
76 | Cc1cnc(Nc2cccc(C3CN(C(=O)c4ccccn4)CCO3)n2)s1 (stereo unspecified) | -7.73
77 | CCCc1cnc(Nc2cccc(C3CCCN(C(=O)C4CCCCC4)C3)n2)s1 (stereo unspecified) | -7.86
78 | Cc1ccc(/C=C/C(=O)Nc2ccc(S(=O)(=O)Nc3nc(C)cc(C)n3)cc2)cc1 | -5.91
79 | Cc1cnc(Nc2cccc(C3CN(C(=O)CCc4ccc(N(C)C)cc4)CCO3)n2)s1 (stereo unspecified) | 3.21
80 | CC(C)CC(=O)Nc1ccc(S(=O)(=O)Nc2ncccn2)cc1 | -0.27
81 | O=C(CSc1nnc2c(n1)[nH]c1ccccc12)Nc1cccc(Cl)c1 | -19.5
82 | Cc1cc(C)nc(NS(=O)(=O)c2ccc(N3C(=O)c4ccccc4C3=O)cc2)n1 | -1.86
83 | COc1ccc(NS(=O)(=O)c2ccc(NC(=O)c3ccccc3C(=O)O)cc2)nn1 | 0.95
84 | CCCCc1cnc(Nc2cccc(C3CCN(C(=O)[C@@H]4CCCN4C(=O)OC(C)(C)C)CC3)n2)s1 | -3.6
85 | CC(=O)Nc1ccc(S(=O)(=O)Nc2cc(C)ccn2)cc1 | 1.91
86 | O=C(Nc1ccc(S(=O)(=O)Nc2ncccn2)cc1)C1CC(=O)N(c2ccccc2)C1 (stereo unspecified) | -22.8
87 | CCC(=O)Nc1ccc(S(=O)(=O)Nc2nccc(C)n2)cc1 | -9.93
88 | Cc1ccc(/C=C/C(=O)Nc2ccc(S(=O)(=O)Nc3ncccn3)cc2)cc1 | 4.41
89 | Nc1ccc(Oc2ccc3c(c2)C(=O)N(CCO)C3=O)cc1 | 0.81
90 | CC(=O)Nc1cccc(Oc2ccc3c(c2)C(=O)N(c2ccc(OC(C)=O)cc2)C3=O)c1 | 1.8
91 | Cc1cnc(Nc2cccc(C3CN(C(=O)CN(C(=O)OC(C)(C)C)c4ccccc4)CCO3)n2)s1 (stereo unspecified) | -15.5
92 | CCCc1cnc(Nc2cccc(C3CN(C(=O)C4CCCCC4)CCO3)n2)s1 (stereo unspecified) | -12.3
93 | COc1ccc(-c2csc(Nc3ccc(S(=O)(=O)Nc4cc(OC)nc(OC)n4)cc3)n2)cc1 | -3.14
94 | COc1ccc(Br)cc1/C=N/NS(=O)(=O)c1ccccc1 | -21.2
95 | COc1cc(CN2CCCC2c2cccc(Nc3nccs3)n2)ccc1OCC(N)=O (stereo unspecified) | 3.54
96 | CC(C)(N)C(=O)N1CCC(c2cccc(Nc3ncc(CC(F)(F)F)s3)n2)CC1 | -21.1
